TetR repression strength data for 102 sequences are collected here from a collection of fitness landscapes (doi:10.1038/s41467-024-54723-y).

Over roughly 18,000 sequences, “TetR repression strength (sort-seq, GFP reporter)” has its median near 0.23; the highest 2% begin near 0.68. Some of the results follow.

The target in this assay is TetR (class B, Tn10) (UniProt P04483). Description: TetR repression strength (sort-seq, GFP reporter) (relative to tetO2 = 1); higher = stronger repression. Particulars: E. coli. The procedure, abridged: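 Repression strength is the top bin index plus one minus the read-weighted mean bin, relative to the unaltered operator's value. A low-copy library in E. coli SIG10-MAX randomized eight operator positions between a constitutive promoter and sfGFP, with TetR expressed constitutively; cells grew 5 h at 37 °C in LB with 50 µg/mL chloramphenicol and 10^6 were FACS-sorted into 13 bins that were each Illumina-sequenced. Three independent transformations were averaged, keeping only members with ≥30 reads in all replicates and CV ≤0.5.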
Chain of UniProt P04483 (P04483 whole entry): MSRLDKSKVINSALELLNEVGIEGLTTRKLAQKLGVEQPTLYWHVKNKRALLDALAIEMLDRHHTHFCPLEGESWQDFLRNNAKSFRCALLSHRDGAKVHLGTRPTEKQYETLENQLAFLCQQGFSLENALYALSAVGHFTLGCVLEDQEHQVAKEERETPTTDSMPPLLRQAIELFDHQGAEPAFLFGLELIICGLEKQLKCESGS
In turn, TCCCCGTTAGTTCGAGAGA returned a TetR repression strength of 0.171.
The value for TCCCATAAAGTCACCGAGA was 0.289.
The value for TCCCTGTGAGTCATGGAGA was 0.0807; that for TCCCTAATAGTATATGAGA was 0.305; that for TCCCGTCCAGTGGCCGAGA was 0.207.
The value for TCCCGAACAGTAAAAGAGA was 0.286; that for TCCCGTGGAGTTAGTGAGA was 0.276; that for TCCCGTGAAGTTCCGGAGA was 0.205.
In turn, TCCCAGCAAGTGAGTGAGA gave a TetR repression strength of 0.201.
Under TCCCGCGGAGTAGAGGAGA stands 0.389; under TCCCAATGAGTGTAGGAGA, 0.186; under TCCCACCCAGTTCCTGAGA, 0.322.
Under TCCCGGTCAGTGAGTGAGA stands 0.463; under TCCCAAGGAGTGCTTGAGA, 0.139; under TCCCGCTCAGTAGCTGAGA, 0.197.
The value for TCCCGGGCAGTTGCAGAGA was 0.509; that for TCCCCTACAGTCAATGAGA was 0.166; that for TCCCCACAAGTATCCGAGA was 0.296.
TCCCCGGGAGTAGACGAGA showed a TetR repression strength of 0.238.
TCCCCAAAAGTGTGGGAGA came in with a TetR repression strength of 0.821.
The sequence TCCCTTTTAGTCGTTGAGA came in with a TetR repression strength of 0.161.
Regarding TCCCAAAAAGTCTTCGAGA, the TetR repression strength is 0.286.
As to TCCCAGGTAGTTGTCGAGA, the TetR repression strength is 0.0795.
The value for TCCCGTTAAGTATACGAGA was 0.126; that for TCCCCTTAAGTGCAGGAGA was 0.141.
Consider TCCCTTCTAGTCCCCGAGA, for which the TetR repression strength worked out at 0.433.
TCCCAAGTAGTCAATGAGA returned a TetR repression strength of 0.663.
The value for TCCCGCGTAGTTGTAGAGA was 0.542; that for TCCCGCCGAGTGATCGAGA was 0.11.
Under TCCCCTAAAGTGTGTGAGA stands 0.121; under TCCCAGGCAGTCAAGGAGA, 0.288.
TCCCGACTAGTGTGCGAGA gave a TetR repression strength of 0.399.
The value for TCCCGTCAAGTCGTCGAGA was 0.0507.
Consider TCCCGCCAAGTTGACGAGA, for which the TetR repression strength was 0.0287.
As to TCCCTTGCAGTGATGGAGA, the TetR repression strength was found to be 0.268.
The sequence TCCCGCAGAGTGGCAGAGA showed a TetR repression strength of 0.139.
Under TCCCACTCAGTGGCGGAGA stands 0.67; under TCCCCTATAGTGGTAGAGA, 0.84.
Regarding TCCCGACAAGTGGTAGAGA, the TetR repression strength is 0.247.
In the case of TCCCGATGAGTTAGGGAGA, the TetR repression strength stood at 0.296.
Turning to TCCCTACCAGTGTCTGAGA, the TetR repression strength came to 0.238.
The value for TCCCTCTCAGTTAGTGAGA was 0.339; that for TCCCATTGAGTTCAGGAGA was 0.101; that for TCCCCACGAGTGAGTGAGA was 0.223.
In the case of TCCCAGACAGTCATTGAGA, the TetR repression strength was 0.375.
TCCCATACAGTTATGGAGA had a TetR repression strength of 0.233.
Under TCCCGTAGAGTGGCAGAGA stands 0.243; under TCCCACTTAGTGCAGGAGA, 0.0159.
TCCCAGCGAGTCGCGGAGA gave a TetR repression strength of 0.175.
Sequence TCCCCTACAGTTGACGAGA showed a TetR repression strength of 0.226.
Under TCCCGTCAAGTAGATGAGA stands 0.42.
Under TCCCGTTGAGTGGCTGAGA stands 0.0518.
With TCCCCAGGAGTCTAGGAGA, the TetR repression strength stood at 0.284.
In turn, TCCCTTTTAGTCAGCGAGA returned a TetR repression strength of 0.317.
The sequence TCCCCAACAGTGCACGAGA gave a TetR repression strength of 0.221.
The value for TCCCGCTCAGTTGTAGAGA was 0.421.
The value for TCCCTAAGAGTAGGAGAGA was 0.104.
Under TCCCTGAAAGTGGGGGAGA stands 0.18; under TCCCTAAAAGTGAAAGAGA, 0.523; under TCCCTGTTAGTTGCCGAGA, 0.211.
With TCCCGACGAGTAGCGGAGA, the TetR repression strength is 0.32.
TCCCGCAGAGTCGTAGAGA had a TetR repression strength of 0.0766.
The value for TCCCCGCTAGTGTGGGAGA was 0.309; that for TCCCAGCAAGTACTCGAGA was 0.594; that for TCCCAAAAAGTACAAGAGA was 0.397.
Regarding TCCCTCTTAGTGGGGGAGA, the TetR repression strength turned out to be 0.296.
The sequence TCCCGGCTAGTGTATGAGA gave a TetR repression strength of 0.561.
Sequence TCCCCAGGAGTTAGAGAGA gave a TetR repression strength of 0.315.
For the sequence TCCCCCGGAGTGCTAGAGA, the TetR repression strength turned out to be 0.199.
Under TCCCTTACAGTGGCCGAGA stands 0.336; under TCCCGGCGAGTGCCCGAGA, 0.174.
As to TCCCGAGGAGTGATTGAGA, the TetR repression strength came out at 0.331.
The value for TCCCGAATAGTGGTTGAGA was 0.256; that for TCCCATTAAGTGTGTGAGA was 0.292; that for TCCCGGACAGTCGCGGAGA was 0.0765.
Under TCCCATATAGTTTAGGAGA stands 0.0773; under TCCCGGTTAGTGTGAGAGA, 0.0331; under TCCCTAGGAGTTTGCGAGA, 0.194.
The value for TCCCAATGAGTAAGCGAGA was 0.437.
Take TCCCAAGGAGTGTGCGAGA: the TetR repression strength came out at 0.239.
As to TCCCGGTTAGTACGTGAGA, the TetR repression strength amounted to 0.0126.
Under TCCCGGCCAGTTATTGAGA stands 0.378; under TCCCGGTAAGTGATAGAGA, 0.609; under TCCCTGTTAGTGAGGGAGA, 0.243.
Under TCCCTGTTAGTTGCAGAGA stands 0.157.
Under TCCCGGAGAGTGAGGGAGA stands 0.21.
As to TCCCTATTAGTCTGAGAGA, the TetR repression strength turned out to be 0.188.
Regarding TCCCCTGGAGTGTTAGAGA, the TetR repression strength came out at 0.0855.
In turn, TCCCTGAAAGTTAGCGAGA came in with a TetR repression strength of 0.503.
The value for TCCCTCTGAGTGTAGGAGA was 0.231; that for TCCCATTGAGTGCGCGAGA was 0.265.
Under TCCCGCTGAGTAGCAGAGA stands 0.572; under TCCCACCTAGTGGGTGAGA, 0.155.
TCCCCTTCAGTGTAAGAGA registered a TetR repression strength of 0.233.
Turning to TCCCTTTAAGTGGGTGAGA, the TetR repression strength stood at 0.519.
Under TCCCCTGAAGTAAGCGAGA stands 0.311.
On to TCCCTTTTAGTGGGGGAGA, for which the TetR repression strength was found to be 0.0851.
Consider TCCCATAGAGTACGGGAGA, for which the TetR repression strength amounted to 0.3.
For TCCCTCATAGTTACCGAGA, the TetR repression strength was determined as 0.575.
The value for TCCCAACGAGTACATGAGA was 0.312; that for TCCCGGTGAGTTGGCGAGA was 0.257.
TCCCAGAAAGTACTAGAGA: the TetR repression strength was determined as 0.311.
